Experimental findings from the antibiotic and cytotoxicity screens of Wong et al. (2023) are described below.

The other results are listed elsewhere or left out.

Test [1] concerns HSkMC (human skeletal muscle cells). Kind of test: cytotoxicity call (relative viability < 0.9). The conditions noted are these: 10 µM.
The subject of test [2] is HepG2. The test can be described thus: cytotoxicity call (relative viability < 0.9). The conditions noted are these: 10 µM.
For test [3], the system named is S. aureus RN4220. Kind of test: growth inhibition call (relative growth <= 0.2). The note with it: 50 µM.

With `CO[C@H]1CN(C)C(=O)c2cc(NC(=O)CC(F)(F)F)ccc2OC[C@@H](C)N(S(=O)(=O)c2cn(C)cn2)C[C@H]1C`, the cytotoxicity call in test [1] and in test [2] was “inactive” each time. For the same compound, the growth inhibition call in test [3] is “inactive”.

For the compound `COc1ccc(NC(=O)Nc2ccc3c(c2)C(=O)N([C@H](C)CO)C[C@@H](C)[C@H](CN(C)Cc2ccc(C(=O)O)cc2)OCCCC[C@H](C)O3)cc1`, the cytotoxicity call in test [1] and in test [2] was “inactive” throughout. In test [3], the growth inhibition call was “inactive”.

Take `C[C@@H]1CN([C@@H](C)CO)C(=O)c2cc(C#Cc3ccccc3F)cnc2O[C@@H]1CN(C)S(=O)(=O)c1ccccc1F`: the cytotoxicity call in test [1] and in test [2] was “inactive” each time. Also, in test [3], the growth inhibition call was “inactive”.

`C[C@@H]1CN([C@H](C)CO)C(=O)Cc2cc(NS(C)(=O)=O)ccc2O[C@@H]1CN(C)S(C)(=O)=O`: the cytotoxicity call in test [1] and in test [2] was “inactive” each time. For the same compound, the growth inhibition call in test [3] is “inactive”.

Consider `COc1ccc(NC(=O)N(C)C[C@@H]2Oc3c(NC(=O)c4cc(C)nn4C)cccc3C(=O)N([C@@H](C)CO)C[C@@H]2C)cc1`, for which the cytotoxicity call in test [1] and in test [2] was “inactive” throughout. Moreover, the growth inhibition call in test [3] was “inactive”.

Turning to `COc1ccc(NC(=O)Nc2cccc3c2O[C@H](CN(C)S(=O)(=O)c2cn(C)cn2)[C@H](C)CN([C@H](C)CO)C3=O)cc1`, the cytotoxicity call in test [1] and in test [2] was “inactive” in each case. The growth inhibition call in test [3] was “inactive”.

For the compound `Cc1noc(C)c1S(=O)(=O)N(C)C[C@@H]1OCCCC[C@@H](C)Oc2ccc(NC(=O)Nc3ccc(C(F)(F)F)cc3)cc2C(=O)N([C@@H](C)CO)C[C@@H]1C`, the cytotoxicity call in test [1] and in test [2] was “inactive” throughout. The growth inhibition call in test [3] is “inactive”.

Take `COc1ccccc1NC(=O)N(C)C[C@H]1Oc2cc(Br)ccc2S(=O)(=O)N([C@@H](C)CO)C[C@H]1C`: the cytotoxicity call in test [1] and in test [2] was “inactive” in each case. The growth inhibition call in test [3] is “inactive”.

`COC(=O)C[C@@H]1CC[C@H]2[C@@H](COC[C@@H](O)CN2S(=O)(=O)c2ccccc2C)O1`: the cytotoxicity call in test [1] and in test [2] was “inactive” throughout. For the same compound, the growth inhibition call in test [3] is “inactive”.

Turning to `CC(C)NC(=O)N(C)C[C@@H]1Oc2ccc(NC(=O)Nc3ccc4c(c3)OCO4)cc2CC(=O)N([C@@H](C)CO)C[C@@H]1C`, the cytotoxicity call in test [1] and in test [2] was “inactive” in each case. In addition, the growth inhibition call in test [3] is “inactive”.

As to `CO[C@H]1[C@H](O)[C@@H](O)[C@H](O)[C@H](O)[C@@H]1O`, the cytotoxicity call in test [1] and in test [2] was “inactive” each time. In test [3], the growth inhibition call was “inactive”.

For the compound `C[C@H]1CN([C@@H](C)CO)C(=O)Cc2cc(NS(=O)(=O)c3ccc(Cl)cc3)ccc2O[C@@H]1CN(C)S(=O)(=O)c1cn(C)cn1`, the cytotoxicity call in test [1] and in test [2] was “inactive” in each case. The growth inhibition call in test [3] is “inactive”.

As for `C[C@@H]1CN([C@@H](C)CO)C(=O)Cc2cc(NC(=O)Nc3ccccc3)ccc2O[C@H]1CN(C)Cc1ccc(C(=O)Nc2ccccc2N)cc1`, the cytotoxicity call in test [1] and in test [2] was “inactive” throughout. Moreover, the growth inhibition call in test [3] was “inactive”.

For the compound `COc1cc(/C=C/c2cc(/C=C/c3ccc(O)c(OC)c3)n(Cc3ccc4c(c3)OCO4)c(=S)n2)ccc1O`, the cytotoxicity call in test [1] and in test [2] was “inactive” each time. Also, the growth inhibition call in test [3] is “inactive”.

In the case of `CCOC(=O)Cn1c(=O)c(C(N)=S)cn(C(C)C)c1=O`, the cytotoxicity call in test [1] and in test [2] was “inactive” in each case. Moreover, in test [3], the growth inhibition call is “inactive”.

For the compound `COc1ccc(S(=O)(=O)N(C)C[C@@H]2OCCCC[C@H](C)Oc3ccc(NC(=O)Nc4ccc(F)cc4)cc3C(=O)N([C@H](C)CO)C[C@@H]2C)cc1`, the cytotoxicity call in test [1] and in test [2] was “inactive” throughout. Moreover, the growth inhibition call in test [3] is “inactive”.

For `C[C@H](CO)N1C[C@H](C)[C@@H](CN(C)Cc2ccc(C(=O)O)cc2)Oc2ccc(NC(=O)Nc3cccc4ccccc34)cc2CC1=O`, the cytotoxicity call in test [1] and in test [2] was “inactive” each time. Also, the growth inhibition call in test [3] is “inactive”.

As to `O=C(C[C@H]1CC[C@@H](NS(=O)(=O)c2ccc(F)cc2)[C@@H](CO)O1)NCc1ccc(Cl)c(Cl)c1`, the cytotoxicity call in test [1] and in test [2] was “inactive” throughout. Further, the growth inhibition call in test [3] was “inactive”.

For `O=C(O)c1cn(C2CC2)c2cc(N3CCC(O)(COc4ccc(N5C[C@H](CO)OC5=O)cc4F)CC3)c(F)cc2c1=O`, the cytotoxicity call in test [1] and in test [2] was “inactive” in each case. Moreover, in test [3], the growth inhibition call was “inactive”.

On to `CC(C)(CO)Nc1ncnc(N)c1[N+](=O)[O-]`, for which the cytotoxicity call in test [1] and in test [2] was “inactive” each time. In addition, the growth inhibition call in test [3] is “inactive”.

On to `Cc1noc(C)c1S(=O)(=O)Nc1ccc2c(c1)C(=O)N([C@H](C)CO)C[C@@H](C)[C@H](CN(C)Cc1ccccc1)OCCCC[C@@H](C)O2`, for which the cytotoxicity call in test [1] and in test [2] was “inactive” in each case. The growth inhibition call in test [3] is “inactive”.

`C[C@@H]1CCCCO[C@@H](CN(C)C(=O)Nc2ccc3c(c2)OCO3)[C@@H](C)CN([C@H](C)CO)C(=O)c2cc(NS(=O)(=O)c3ccccc3)ccc2O1`: the cytotoxicity call in test [1] and in test [2] was “inactive” in each case. For the same compound, the growth inhibition call in test [3] is “inactive”.

For `COc1ccc2c3c(n(c2c1)C)[C@@H](CO)N(CC1CCOCC1)C[C@]13CCN(CC1)C(=O)Cc1cccnc1`, the cytotoxicity call in test [1] and in test [2] was “inactive” each time. In addition, in test [3], the growth inhibition call was “inactive”.

As to `C[C@@H]1CN([C@H](C)CO)C(=O)c2cc(NC(=O)CCC(F)(F)F)ccc2O[C@H]1CN(C)Cc1ccc(Cl)c(Cl)c1`, the cytotoxicity call in test [1] and in test [2] was “inactive” each time. Also, the growth inhibition call in test [3] was “inactive”.

Regarding `C[C@@H]1CN([C@@H](C)CO)S(=O)(=O)c2ccc(-c3ccc(C(=O)N(C)C)cc3)cc2O[C@H]1CN(C)C(=O)Cc1ccccn1`, the cytotoxicity call in test [1] and in test [2] was “inactive” throughout. Further, in test [3], the growth inhibition call was “inactive”.

Consider `O=C(C[C@@H]1CC[C@@H]2[C@H](COC[C@H](O)CN2C(=O)Nc2cccc(F)c2)O1)NCCCN1CCOCC1`, for which the cytotoxicity call in test [1] and in test [2] was “inactive” in each case. For the same compound, the growth inhibition call in test [3] is “inactive”.

Turning to `O=C(C[C@H]1C=C[C@@H](NS(=O)(=O)c2ccc(F)cc2)[C@H](CO)O1)NCc1ccc(Cl)c(Cl)c1`, the cytotoxicity call in test [1] and in test [2] was “inactive” in each case. Besides, the growth inhibition call in test [3] is “inactive”.

Consider `C[C@H](CO)N1C[C@H](C)[C@@H](CN(C)C(=O)Nc2cccc3ccccc23)Oc2ccc(NC(=O)Nc3cccc4ccccc34)cc2CC1=O`, for which the cytotoxicity call in test [1] was “active”. For the same compound, the cytotoxicity call in test [2] is “inactive”. Further, the growth inhibition call in test [3] was “inactive”.

In the case of `C[C@@H]1CN([C@H](C)CO)C(=O)c2cccc(NC(=O)c3nc4ccccc4s3)c2O[C@@H]1CN(C)S(C)(=O)=O`, the cytotoxicity call in test [1] and in test [2] was “inactive” throughout. The growth inhibition call in test [3] is “inactive”.

Take `O=C(C[C@H]1CC[C@H]2[C@@H](COC[C@H](O)CN2S(=O)(=O)c2ccccc2)O1)NCCN1CCCCC1`: the cytotoxicity call in test [1] and in test [2] was “inactive” each time. Further, in test [3], the growth inhibition call was “inactive”.

Consider `Cc1ccc(S(=O)(=O)N(C)C[C@@H]2Oc3c(NC(=O)c4cnccn4)cccc3C(=O)N([C@H](C)CO)C[C@H]2C)cc1`, for which the cytotoxicity call in test [1] and in test [2] was “inactive” each time. Further, the growth inhibition call in test [3] was “inactive”.

Consider `C[C@H]1CN([C@@H](C)CO)S(=O)(=O)c2ccc(C#CC3(O)CCCC3)cc2O[C@@H]1CN(C)C(=O)Cc1ccncc1`, for which the cytotoxicity call in test [1] and in test [2] was “inactive” in each case. In addition, the growth inhibition call in test [3] is “inactive”.
